Assay results as given in PubChem BioAssay AID624417 (National Center for Advancing Translational Sciences (NCATS), 2012).
The campaign covered roughly 410,000 compounds. About 6,400 (1.6%) were called active. The shares of active, inactive and inconclusive entries below differ from those in the screen. Calls come from the whole dose curve; as a rule, active = well fitted inhibition curve with a large enough effect; inconclusive = small, poorly fitted or top-dose-only effect; inactive = no such curve, though single readings can be large or run the other way. No potency is given beside an inconclusive call; the fits are too rough.
% is set by controls: 0 for no effect and ±100 for the full control effect; potency is the fitted concentration of half-maximal effect; tags give direction and shape of the fitted curve.
Note: nearly all actives have a fitted effect of over 55% in size.

Each compound was assayed against Glucagon-like peptide 1 receptor (Homo sapiens) (UniProt P43220) (assay: qHTS of GLP-1 Receptor Inverse Agonists (Inhibition Mode)). Conditions: HEK293 GLP-1R CRE-luciferase, luminescence, 24 h, GLP-1R form is constitutively active; activity change, negative = inhibition: at 38.3 µM (top of the series) unless noted.
UniProt P43220, sequence (P43220 whole entry, looked up): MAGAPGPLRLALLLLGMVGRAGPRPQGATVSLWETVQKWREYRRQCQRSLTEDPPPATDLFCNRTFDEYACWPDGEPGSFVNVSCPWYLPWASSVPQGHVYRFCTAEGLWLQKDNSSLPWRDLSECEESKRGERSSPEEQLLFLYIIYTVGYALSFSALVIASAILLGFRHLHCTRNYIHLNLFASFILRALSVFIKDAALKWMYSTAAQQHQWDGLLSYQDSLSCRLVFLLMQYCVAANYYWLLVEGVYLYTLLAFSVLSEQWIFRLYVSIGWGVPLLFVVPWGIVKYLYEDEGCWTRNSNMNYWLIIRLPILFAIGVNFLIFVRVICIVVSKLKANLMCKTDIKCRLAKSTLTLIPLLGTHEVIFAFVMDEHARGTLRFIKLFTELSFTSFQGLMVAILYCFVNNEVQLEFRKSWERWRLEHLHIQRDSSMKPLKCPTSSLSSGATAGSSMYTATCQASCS
Outline: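 Luminescence readout: a drop in cAMP-driven luciferase signal flags inverse agonism at a constitutively active GLP-1R stably expressed in HEK293. Compound exposure lasted 24 hr at 37 deg C, 5% CO2.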
With CCOCCCNCc1cc(Br)ccc1OCc1ccccc1 the Potency was inconclusive [inhibitor, single point]. COC(=O)c1cc(=O)n(Cc2ccc(F)cc2)c(=Nc2ccccc2)s1 was tested, and the Potency was inconclusive [inhibitor, partial curve]. In the case of COc1ccc(S(=O)(=O)NCCCCOc2ccc(Cl)cc2)cc1, the Potency is reported as inconclusive [inhibitor, partial curve, poor fit]. For CCOc1cc(CNCc2ccccc2)ccc1OCC(=O)NC1CCCCC1, the Potency was inconclusive [inhibitor, partial curve]. For CS(=O)(=O)N(CCc1ccccc1)CC(=O)NCc1ccc(Cl)cc1, the Potency was inconclusive [inhibitor, single point]. In the case of O=C(NC(=S)Nc1c(Cl)cc(Cl)cc1Cl)c1ccccc1, the Potency is reported as inconclusive [inhibitor, partial curve, poor fit]. With NC1=NC[C@H](CC2CCCCC2)N1CCc1cc(C(F)(F)F)cc(C(F)(F)F)c1 the Potency was inconclusive [inhibitor, single point]. For O=C(Nc1ccc(OCC(=O)N2CCOCC2)cc1)c1cncc(Br)c1, the Potency was inconclusive [inhibitor, single point]. CCOC(=O)CN1C(=O)N[C@@H](c2cccc(F)c2)C(C(=O)OC)=C1C was tested, and the Potency was inconclusive [inhibitor, partial curve, poor fit]. CCc1ccccc1N(c1nc(-c2ccc(OC)c(OC)c2)no1)c1nc(-c2ccc(OC)c(OC)c2)no1 was tested, and the Potency was “inactive”. COc1cc2c(cc1NC(=O)COC(=O)[C@@H](NC(=O)c1ccccc1F)C(C)C)oc1ccccc12 was tested, and the Potency was inconclusive [inhibitor, single point]. O=C(Nc1cccc2c1[nH]c1ccccc12)C(F)(F)F was tested, and the Potency was inconclusive [inhibitor, partial curve, poor fit]. With CCCOn1c(OCC(C)C)nc2ccccc2c1=O the Potency was inconclusive [inhibitor, partial curve, poor fit]. With CCN1C(=O)c2ccccc2Sc2ccc(NC(=O)Cc3ccc(OC)cc3)cc21 the Potency was inconclusive [inhibitor, full curve]. With CCCc1nc2sc3c(c2c(=O)n1NC(=O)CCCl)CCCC3 the Potency was inconclusive [inhibitor, single point]. Cc1nn(-c2ccccc2)c2sc(C(=O)N3CCc4ccccc4C3)cc12 was tested, and the Potency was inconclusive [inhibitor, single point]. O=C(/C=C/c1ccccc1)N1CCN(c2ccc([N+](=O)[O-])c(N3CCOCC3)c2)CC1 was tested, and the Potency was inconclusive [inhibitor, single point]. C=CCNC(=S)N1CCN(c2ccccc2Cl)CC1 was tested, and the Potency was inconclusive [inhibitor, full curve]. In the case of COCCCNc1nc(-c2ccc(Cl)cc2)nc2ccccc12, the Potency is reported as inconclusive [inhibitor, partial curve, poor fit]. With CCOc1ccc(NCc2cccn2-c2nnc(N3CCC(C(=O)NCc4cccc(OC)c4)CC3)s2)cc1 the Potency was inconclusive [inhibitor, partial curve, poor fit]. For CCc1nnc(NC(=O)CCC(=O)N2CCN(Cc3ccc(C)cc3C)CC2)s1, the Potency was inconclusive [inhibitor, partial curve]. For COC(=O)[C@]12CCCCC=C1N(CCC1=CCCCC1)C(=O)[C@H](CC(=O)N1CCSCC1)C2, the Potency was inconclusive [inhibitor, single point]. With CCOC(=O)c1ccc2[nH]c3c(c2c1)CCCC3 the Potency was inconclusive [inhibitor, single point]. COc1ccc(-c2cc(-c3ccccc3)nc3c2COc2ccccc2-3)cc1 was tested, and the Potency was “inactive”. For CCCn1cc(S(=O)(=O)c2cc(C)ccc2C)c(=O)c2cc(F)c(N3CCCCCC3)cc21, the Potency was “inactive”. For CCC(C)NC(=O)c1ccc2c(c1)N=C(C)c1cc(C)ccc1S2 (configuration not stated), the Potency was inconclusive [inhibitor, full curve, poor fit]. With O=C(Cc1ccc(S(=O)(=O)N2CCOCC2)s1)Nc1cc(C(F)(F)F)cc(C(F)(F)F)c1 the Potency was inconclusive [inhibitor, single point]. For O=[N+]([O-])c1cc(C(F)(F)F)ccc1N1CCCNCC1, the activity change, negative = inhibition was inactive: -26% [at 7.66 µM]. With NC(=O)CSC1=N/C(=C\c2ccco2)C(=O)N1c1ccc(OC(F)F)cc1 the Potency was “inactive”. With C/C(=N\NC(=O)C1CC1c1ccccc1)c1cccs1 (configuration not stated) the Potency was inconclusive [inhibitor, single point]. COC(=O)c1ccc(N2Cc3ccccc3/C2=N\C(=O)Nc2ccccc2)cc1 was tested, and the Potency was “inactive”. In the case of CN(Cc1ncc[nH]1)Cc1cn(-c2ccccc2)nc1-c1ccc2c(c1)OCO2, the Potency is reported as inconclusive [inhibitor, single point]. In the case of COc1ccccc1N1CCN(CCN2C(=O)C3CCCCN3C2=O)CC1 (configuration not stated), the Potency is reported as “inactive”. With O=C(Nc1ccc(Cl)c(S(=O)(=O)N2CCOCC2)c1)c1cccs1 the Potency was inconclusive [inhibitor, single point]. O=C(c1ccc(CS(=O)(=O)c2ccc(Br)cc2)o1)N1CCN(c2ccccn2)CC1 was tested, and the Potency was inconclusive [inhibitor, partial curve, poor fit]. In the case of COc1ccc2c(c1)c1c(c(=O)n(-c3cccc(C)c3)c(=O)n1CC(=O)N1CCCC1)n2C, the Potency is reported as “inactive”. CC1CCCN(Cc2ccc(OCc3ccccc3)cc2)C1 (configuration not stated) was tested, and the Potency was inconclusive [inhibitor, single point]. In the case of N/C(=N\OC(=O)Cc1ccc([N+](=O)[O-])cc1)c1ccccn1, the Potency is reported as inconclusive [inhibitor, partial curve, poor fit]. In the case of CCN(CC)CCSc1nnc2c3ccccc3n(Cc3ccccc3)c2n1, the Potency is reported as inconclusive [inhibitor, full curve]. Cc1cc(C(=O)OCC(=O)Nc2c(F)cccc2F)c(C)n1-c1ccccc1 was tested, and the Potency was inconclusive [inhibitor, partial curve, poor fit]. For COc1ccccc1-c1sc2cc3c(cc2c1-c1ccc2c(c1)OCO2)OCO3, the Potency was inconclusive [inhibitor, single point]. With COC(=O)CC(NS(=O)(=O)c1cccs1)c1cccc2ccccc12 (configuration not stated) the Potency was inconclusive [inhibitor, single point]. With COc1cccc(Nc2n[nH]c(=S)s2)c1 the Potency was “inactive”. In the case of O=C(NCc1ccccc1Cl)C1CCCN(c2ncnc3c2nc2n3CCCCC2)C1 (configuration not stated), the Potency is reported as inconclusive [inhibitor, full curve, poor fit]. C[C@@H]1CN([C@@H](C)CO)C(=O)Cc2cc(NC(=O)Nc3ccc(F)cc3)ccc2O[C@@H]1CN(C)Cc1ccc(Cl)c(Cl)c1 was tested, and the Potency was inconclusive [inhibitor, partial curve, poor fit]. In the case of O=C(NCc1nnc(SCc2ccccc2)n1-c1ccccc1)C12CC3CC(CC(C3)C1)C2, the Potency is reported as inconclusive [inhibitor, single point]. Cc1cccc(C(=O)O[C@@H]2[C@H](Cc3ccccc3)NS(=O)(=O)[C@H]3C[C@@H]4C=C[C@]23O4)c1 was tested, and the Potency was “inactive”. Fc1ccc(-c2cnc3n2CCCCC3)cc1 was tested, and the Potency was inconclusive [inhibitor, single point]. CCOc1ccc(N(CC)S(=O)(=O)c2cccc3nsnc23)cc1 was tested, and the Potency was inconclusive [inhibitor, partial curve, poor fit]. For N#Cc1c(Sc2ncc(C(F)(F)F)cc2Cl)nsc1C/C=N\OCc1c(F)cccc1Cl, the Potency was inconclusive [inhibitor, single point]. For C=C(C)COc1ccc(-c2nc(N)nc(C(F)(F)F)c2-c2ccc(OC)cc2)c(O)c1, the Potency was inconclusive [inhibitor, single point]. In the case of Cc1ccsc1CCN1C(=O)N(c2ccc(F)cc2)C(=O)C1CC(=O)Nc1ccccc1 (configuration not stated), the Potency is reported as inconclusive [inhibitor, single point]. For CC(C)c1ccc(C(=O)OCC(=O)NC2CCCC2)cc1, the Potency was inconclusive [inhibitor, single point]. In the case of CCOc1cc(CNCCO)cc(Br)c1OCc1cccs1, the Potency is reported as inconclusive [inhibitor, single point]. In the case of C=CCn1c(C)cc(C(=O)CN2C(=O)c3ccccc3S2(=O)=O)c1C, the Potency is reported as inconclusive [inhibitor, full curve, poor fit]. In the case of CC(C)=CC(=O)Nc1ccc(Cl)cc1, the Potency is reported as “inactive”. With CC(CC(=O)Nc1ccc2c(c1)c(=O)n(C)n2-c1cccs1)c1ccccc1 (configuration not stated) the Potency was inconclusive [inhibitor, full curve]. Cc1ccc2[nH]c(CNC(=O)c3ccc(F)cc3)cc2c1 was tested, and the Potency was inconclusive [inhibitor, single point]. In the case of CCc1ccc(NC(=O)[C@H](NC(=O)[C@@H]2Cc3ccccc3CN2)c2ccccc2)cc1, the Potency is reported as inconclusive [inhibitor, partial curve, poor fit]. In the case of O=C(CN1CCC(n2nnc3cc(C(F)(F)F)ccc32)CC1)NCc1cccs1, the Potency is reported as inconclusive [inhibitor, single point]. For Cc1cccc(NC(=O)NC(C)C(c2ccccc2)N2CCN(C)CC2)c1 (configuration not stated), the activity change, negative = inhibition was inactive: -5.75% [at 0.307 µM]. CCOC(=O)Cc1csc(NC(=O)CSc2ccc(Br)cc2)n1 was tested, and the Potency was inconclusive [inhibitor, partial curve, poor fit].
